Each structure is given as a SMILES string. The campaign covered roughly 150,000 compounds. About 540 (0.36%) showed an effect of 50% or more. This is one part of the list.

This assay relates to Plasmodium falciparum. Kind of assay: Primary screen in NF54 nanoGlo assay, in single point, at 2uM, 72h; a lower Z score goes with more inhibition. Format: functional, Erythrocyte. To be noted: timepoint 72 hour.
Consider `Cc1cccc(-c2noc(C3CCC(=O)N3CC(=O)NCC3CCCO3)n2)c1` (stereo not given), for which the “% Inhibition” value is given as -6% and the Z score came to 1.22.
Taken in the same sequence, the figures for `COCCN(Cc1nc(C(=O)N2CCN(c3ccccc3OC)CC2)cs1)C(=O)Nc1c(C)cccc1C` were -12% and 1.31.
For the compound `CC(C)(C)OC(=O)NC1CCC(C(=O)NCc2ccccc2)C1` (stereo not given), the “% Inhibition” value is reported as 1% and the Z score was -0.27.
On to `CCN(C(=O)CCc1ccccc1F)[C@@H](C)CO`, for which the “% Inhibition” value is reported as -3% and the Z score amounted to 0.52.
In the same order, the values of `Cc1ccc(-c2cccc(C(=O)NCC3CCOCC3)c2)c(C)n1` are -2% and 0.22.
For the compound `NC(=O)NCc1cc(C2CC2)ccc1F`, the “% Inhibition” value is -3% and the Z score is given as 0.45.
In the same order, the values of `CCc1[nH]c2ccc(CNC(=O)[C@H]3CCN(CCOC)C3)cc2c1C` are 14% and -1.86.
Regarding `NC(=NCC1(c2ccccc2)CCOCC1)NC[C@H]1CCCO1`, the “% Inhibition” value is reported as -3% and the Z score is given as 0.43.
In the case of `CCOc1ccnc(NCC[C@H]2CCCCN2C2CCCC2)n1`, the “% Inhibition” value is recorded as -6% and the Z score is on record as 0.83.
Turning to `Cc1cc(NC(=O)CN2C(=O)c3ccccc3C2=O)n(C)n1`, the “% Inhibition” value stood at 3% and the Z score was -0.48.
Take `CC(C)c1nnc(CN(C/C=C/c2ccccc2)C2CC2)o1`: the “% Inhibition” value is given as -11% and the Z score came out at 1.55.
Taken in the same sequence, the figures for `C[C@H]1CCCN(c2ccc(C(N)=O)cc2-n2cnnc2)C1` were -14% and 2.05.
On to `c1cnc(NCCc2nc3c(s2)COCC3)cn1`, for which the “% Inhibition” value was 6% and the Z score is recorded as -0.48.
On to `COCCN(C)CCNC(=O)N1CCCC(C)C1C` (stereo not given), for which the “% Inhibition” value was -6% and the Z score is given as 0.93.
Consider `CN1CCO[C@@H](CNCc2noc(C3CC3)n2)C1`, for which the “% Inhibition” value is -2% and the Z score is listed as 0.45.
In the same order, the values of `O=C(NCCCn1ccnc1)[C@@H]1Cc2c(ccc3ccccc23)O1` are 4% and -0.47.
On to `O=C(c1cccn2c(=O)c3cc(Cl)ccc3nc12)N1CCC(Cc2ccccc2)CC1`, for which the “% Inhibition” value is recorded as -13% and the Z score worked out at 1.52.
Consider `O=C(NCCc1ccncc1)C1CN(C2CCCCC2)C1`, for which the “% Inhibition” value is listed as -4% and the Z score turned out to be 0.41.
Taken in the same sequence, the figures for `CCCCN(C)C(=O)c1ccc(-n2nc(-c3nnc(C)o3)c(C)c2-c2ccc(F)cc2)cc1` were 9% and -0.97.
For the compound `CN(Cc1nnn(C)n1)C[C@@H]1C[C@H](F)CN1Cc1cccs1`, the “% Inhibition” value was -7% and the Z score worked out at 0.95.
As to `CC(C)N(C[C@@H]1COc2ccccc2C1)C(=O)c1ccnn1C`, the “% Inhibition” value is given as -4% and the Z score was 0.67.
Turning to `CC1(C)C[C@@](C)(c2ccccc2)c2ccccc2N1C(=O)CCc1ccccc1`, the “% Inhibition” value is reported as 1% and the Z score is -0.1.
With `COc1ccc(CN(C)c2ncnc3ccsc23)cc1`, the “% Inhibition” value is -47% and the Z score is 5.53.
As for `COC(=O)CN1CCN(C(=O)C2(O)CCC2)CC1`, the “% Inhibition” value is reported as -11% and the Z score was 1.59.
In the same order, the values of `NS(=O)(=O)c1ccc(N2CCOCC2)c(-c2nc(-c3ccco3)no2)c1` are 11% and -2.11.
For the compound `N#Cc1c(N)nc2c(c1-c1ccc(CO)o1)CCc1cc(O)ccc1-2`, the “% Inhibition” value is listed as -3% and the Z score is on record as 0.47.
Take `N#Cc1ccccc1CO[C@H]1CCCc2c[nH]nc21`: the “% Inhibition” value is listed as -8% and the Z score was found to be 0.8.
Turning to `O=C(Cc1ccsc1)NCc1ccnc(N2CCCC2=O)c1`, the “% Inhibition” value amounted to 7% and the Z score was -1.18.
Taken in the same sequence, the figures for `COCc1nnc(CNC(=O)N2CCO[C@H](c3cccc(Cl)c3)[C@H]2C)[nH]1` were -3% and 0.58.
In the same order, the values of `Cc1ccsc1[C@H]1CCN(Cc2c(C)nn(C)c2Cl)C[C@@H]1O` are -10% and 1.72.
As for `Cn1c(C(F)(F)F)nn(C2CCN(C(=O)Cn3cnc4ccccc43)CC2)c1=O`, the “% Inhibition” value is -2% and the Z score turned out to be 0.22.
In the same order, the values of `COc1ccc(Cl)cc1NCC(=O)NC(=O)NC1CC1` are -11% and 1.95.
`CCOC(=O)C1CCCN(C(=O)C(C)NC(=O)c2cc3n(n2)CCCN(Cc2ccc(F)cc2)C3=O)C1` (stereo not given): the “% Inhibition” value is on record as -10% and the Z score was 1.24.
Regarding `COc1ccc([C@@H](O)C(=O)N2CCc3c(nc(C)nc3N3CCCC3)C2)cc1`, the “% Inhibition” value worked out at 0% and the Z score was determined as 0.05.
Turning to `Cc1ccn2c(-c3csc(Nc4ncccn4)n3)c(C)nc2c1`, the “% Inhibition” value was -2% and the Z score amounted to 0.24.
Taken in the same sequence, the figures for `COCc1cc(C)nc(OC[C@@H]2OC(c3ccccc3OC)=NN2C(C)=O)c1C#N` were 3% and -0.37.
As for `N#Cc1cccc(OC2CCN(c3ccc(Cl)c(C#N)n3)CC2)c1`, the “% Inhibition” value turned out to be 12% and the Z score is -1.44.
As to `CN(c1cccc(C(=O)Nc2ccon2)c1)S(=O)(=O)c1ccccc1`, the “% Inhibition” value is recorded as -5% and the Z score amounted to 0.59.
Regarding `CCc1nsc(NC2CCN(CC(=O)N(CC)CC)CC2)n1`, the “% Inhibition” value is 3% and the Z score is listed as -0.36.
As for `O=C(O)c1cnc(C=Cc2csc(-c3ccccc3)n2)[nH]c1=O`, the “% Inhibition” value came to 5% and the Z score is given as -1.03.
In the same order, the values of `Cc1ccccc1-n1ncnc1CCN1C[C@@H](C)O[C@@H](C)C1` are -12% and 1.65.
With `N#CCNC(=O)C1CC12CCc1cc(Br)ccc12` (stereo not given), the “% Inhibition” value is -14% and the Z score is listed as 1.19.
In the same order, the values of `CCN1CCCN(C(=O)c2ccc(-c3cnc4c(C#N)cnn4c3)cc2)CC1` are -13% and 1.57.
Turning to `O=C(CCCn1cncn1)N1CCC[C@H](c2nc3ccccc3s2)C1`, the “% Inhibition” value is on record as -3% and the Z score is reported as 0.61.
Taken in the same sequence, the figures for `CCOc1cccc2nnc(NC(=O)CCC(=O)NCc3cccc(OC)c3)n12` were -11% and 1.3.
As to `c1ccc(-c2noc3c(NC4CCCCCC4)ncnc23)cc1`, the “% Inhibition” value is reported as -6% and the Z score came to 1.08.
Taken in the same sequence, the figures for `COc1ccccc1-c1noc(C(C)(C)CN2CCOCC2)n1` were -20% and 2.56.
Turning to `O=C(CCS(=O)(=O)c1ccc(F)cc1)NCC(=O)NCCc1c[nH]c2ccccc12`, the “% Inhibition” value is -5% and the Z score was found to be 0.71.
Take `C[C@H]1CN(C(=O)c2c[nH]nc2-c2ccccc2Cl)CCN1`: the “% Inhibition” value was -14% and the Z score is reported as 2.1.
In the same order, the values of `CCC(C)(C)C(=O)N1CCC(CCOCc2cccc(F)c2)CC1` are -9% and 1.81.
As for `COc1ccccc1Nc1nc(C(C(F)(F)F)(C(F)(F)F)C(F)(F)F)nc(C(C(F)(F)F)(C(F)(F)F)C(F)(F)F)n1`, the “% Inhibition” value is -9% and the Z score worked out at 1.48.
Taken in the same sequence, the figures for `COc1cccc(-c2ccnc3c(C(=O)NCc4ccccn4)cnn23)c1` were 1% and -0.12.
With `CC(C)S(=O)(=O)CCCn1cc(S(=O)(=O)N(C)C)cn1`, the “% Inhibition” value is on record as -26% and the Z score is recorded as 3.03.
Take `CCn1cc(S(=O)(=O)Nc2ccc(-c3nc4ccc(C)cc4s3)cc2)cn1`: the “% Inhibition” value is on record as -13% and the Z score is given as 2.37.
As for `COc1ccc(-c2noc(-c3cnc([C@@H]4CCCO4)s3)n2)cc1OC`, the “% Inhibition” value is -1% and the Z score is recorded as 0.22.
As to `O=C(N[C@H]1CCOc2ccccc21)c1ccc2ncsc2c1`, the “% Inhibition” value is -2% and the Z score was 0.21.
Turning to `COc1ccc(CNC(=O)c2cc3c(=O)[nH]c(-c4ccccc4)cn3n2)cc1OC`, the “% Inhibition” value is reported as -16% and the Z score was 1.77.
Consider `O=C(c1ccc(-n2cnnc2)nc1)N1CC[C@@]2(CCCN(CC3CC3)C2=O)C1`, for which the “% Inhibition” value is given as -19% and the Z score is 2.53.
Turning to `COCC(C)(C)CNC(=O)c1c(C)ncnc1C`, the “% Inhibition” value is given as -4% and the Z score was found to be 0.59.
In the same order, the values of `CN(Cc1ccco1)c1ccc(S(C)(=O)=O)cc1C(F)(F)F` are -10% and 1.53.
Taken in the same sequence, the figures for `Cc1csc(CNc2ccn([C@@H](C)c3ccccc3)n2)n1` were -8% and 1.08.
`O=C(NS(=O)(=O)N1CCN(Cc2ccccc2)CC1)c1cccc2ccccc12`: the “% Inhibition” value is 14% and the Z score is on record as -2.15.
Regarding `CCN=C(NCc1nc(C)no1)NC[C@H](C)c1ccc(F)c(F)c1`, the “% Inhibition” value is on record as -5% and the Z score is listed as 0.52.
Regarding `O=C1C2CC=CCC2C(=O)N1c1nc2ccccc2s1` (stereo not given), the “% Inhibition” value is given as -10% and the Z score is 1.43.
Regarding `COc1nc(-c2cccc(F)c2)n(-c2ccc(NC(=O)c3ccc(F)cc3)cc2)n1`, the “% Inhibition” value is reported as -10% and the Z score is listed as 1.43.
As for `Cn1cc([C@H](NC(=O)c2cc3c(s2)CCC3)c2ncon2)cn1`, the “% Inhibition” value worked out at 1% and the Z score was -0.14.
As for `Cc1cccc(-c2cc(NC(=O)CCCn3ccnc3)[nH]n2)c1C`, the “% Inhibition” value is reported as -1% and the Z score was found to be 0.16.
`O=C1C2C(C(=O)N1c1ccc(Cl)cc1)C2(c1ccccc1)c1ccccc1` (stereo not given): the “% Inhibition” value is listed as -8% and the Z score was found to be 0.85.
As for `CC(C)Oc1cccc(C(=O)NC2CCC3(CC2)NC(=O)NC3=O)n1` (stereo not given), the “% Inhibition” value was -8% and the Z score was 0.78.
Turning to `COCCC[C@]1(C(=O)O)CCCN(c2cc(C3CC3)ncn2)C1`, the “% Inhibition” value is -10% and the Z score was determined as 1.65.
Take `COCC(=O)N1CCc2[nH]cnc2C12CCN(C(=O)c1cc(F)ccc1F)CC2`: the “% Inhibition” value was -11% and the Z score worked out at 1.04.
Regarding `CN1CCC(N(C)C(=O)CC[C@H]2CCCN(Cc3nc4ccccc4n3C)C2)CC1`, the “% Inhibition” value was -2% and the Z score is reported as 0.26.
For the compound `Cc1ccc(N2CCN(c3ccc(C)cc3)C2c2cccnc2)cc1`, the “% Inhibition” value was 4% and the Z score was -0.58.
Taken in the same sequence, the figures for `COCCS(=O)(=O)NCc1nc(C(F)(F)F)cs1` were -6% and 0.71.
Taken in the same sequence, the figures for `C[C@]12C(=O)N(c3ccccc3C(=O)NCCN3CCOCC3)C(=O)N1CCc1c2[nH]c2ccccc12` were -13% and 1.89.
In the same order, the values of `Cc1noc(C)c1CN(C)C(=O)c1cc(C(C)C)[nH]n1` are -7% and 0.97.
Consider `Cc1ccc(C(=O)N[C@@]2(C#N)CC2(C)C)c2c1CCC2`, for which the “% Inhibition” value was determined as 0% and the Z score is recorded as 0.06.
Taken in the same sequence, the figures for `Cc1nn(C)cc1NC(=O)CN(Cc1nccn1C)C1CC1` were 2% and -0.28.
As to `O=C(NCC1CCCC1)C1CCOCC1`, the “% Inhibition” value was -15% and the Z score came to 1.65.
As to `CC(C)n1nnnc1-c1ccccc1NS(=O)(=O)C1CC1`, the “% Inhibition” value is listed as 5% and the Z score is on record as -0.9.
For the compound `C[C@@H](C1CC1)N(C)C(=O)c1cc(O)nc2ccccc12`, the “% Inhibition” value is reported as 7% and the Z score is on record as -0.95.
`CCN(CCOc1ccccc1C)C(=O)C[C@H]1CNCCO1`: the “% Inhibition” value is reported as -1% and the Z score was 0.15.
`Cc1nn(C)cc1-c1ccc(C(=O)N2CCC(F)(F)CC2)cc1`: the “% Inhibition” value was -2% and the Z score is listed as 0.44.
On to `O=C(NCCC1=CCCCC1)[C@H]1CCCN(c2nc3ccccc3[nH]2)C1`, for which the “% Inhibition” value is recorded as 2% and the Z score is -0.39.
As to `Cc1c(CN2C[C@@H](CN3CCCCCC3)[C@@H](CO)C2)oc2ccccc12`, the “% Inhibition” value was -2% and the Z score was determined as 0.45.

As usually defined, the % Inhibition is the drop in the measured response relative to a control, in per cent.

(Values after ChEMBL document CHEMBL4888484, “Replenishing the malaria drug discovery pipeline: Screening and hit evaluation of the MMV Hit Generation Library 1 (HGL1) against asexual blood stage Plasmodium falciparum ,using a nano luciferase reporter read-out” (2022).)
